Some of the results follow. The main result of the screen is listed elsewhere. These columns were measured beside it and carry no call. The list favours compounds with an active or inconclusive main result. Potencies come from curve fits of mixed quality, noted in brackets.
Tags tell the direction and shape of the fitted curve.

This assay in a line: Cell-based coincidence reporter assay to measure PMP22 gene transcription in S16 Pmp22-F2sN cells - Confirmatory screen (AID 1508646). To be noted: S16 Schwann cells Pmp22-F2sN, dual luciferase, 24 h; measured here: NLuc reporter channel. In a few lines: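 S16 rat Schwann cells carrying FLuc-2A-NLuc reporter in Pmp22 3' UTR (500-1,000 cells/well) treated with pinned compounds for 24 h at 37C. Dual-luciferase reads: FLuc luminescence first, then NLuc after Stop&Glo.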
On the technique in general: In a reporter assay the amount or activity of a reporter protein is the signal.
A word on the AC50: it is the concentration at which the activity in the assay is half-maximal. Higher therefore signals activity only at high concentration. Regarding `CCOc1ccc2nc(NC(=O)c3nc(SC(C)C)ncc3Cl)sc2c1`, the AC50 was 34.3 µM [falling, partial curve]. On to `COc1ccc(-c2nnc(SCC(=O)NCc3ccccc3)nc2-c2ccc(OC)c(OC)c2)cc1OC`, for which the AC50 is 8.62 µM [falling, full curve, poor fit]. For `COc1ccccc1CNC(=O)CCCCn1c(=O)c2ccccc2n(Cc2ccccc2C)c1=O`, the AC50 is 24.3 µM [falling, partial curve]. With `CCOc1ccc(NC(=O)CSc2oc(-c3ccccc3)nc2S(=O)(=O)c2ccc(Cl)cc2)cc1`, the AC50 was 19.3 µM [falling, partial curve]. Take `COc1ccc(-n2nc3c(N4CCCC(C(=O)NCCc5ccccc5C)C4)nnc(C)c3c2C)cc1` (configuration not stated): the AC50 was 24.3 µM [falling, partial curve]. On to `CC(C)CCNC(=O)CSc1c2c(nc3ccc(Cl)cc13)CCCC2`, for which the AC50 is 19.3 µM [falling, partial curve]. As to `CCCS(=O)(=O)c1ncc(Cl)c(C(=O)Nc2c(C(=O)Nc3ccccc3)oc3ccccc23)n1`, the AC50 is 7.69 µM [falling, full curve].

Regarding `CCc1ccc(NCc2cc3cc(OC)c(OC)cc3n(CC(=O)Nc3cc(C)ccc3C)c2=O)cc1`, the AC50 was 34.3 µM [falling, single point]. The value for `Cc1c(Cl)cccc1Nc1nn2c(=O)c3ccc(C(=O)NCCc4ccccc4)cc3nc2s1` was 15.3 µM [falling, partial curve]; that for `CCc1ccc(NC(=O)Cn2c(=O)n(-c3ccc(OC)cc3)c(=O)c3ccc(C(=O)NCc4ccc(C)cc4)cc32)cc1` was 12.2 µM [falling, partial curve]. Under `COc1ccccc1Nc1nn2c(=O)c3ccc(C(=O)Nc4ccc(F)cc4)cc3nc2s1` stands 6.11 µM [falling, full curve]. As for `O=C(CCS(=O)(=O)c1ccccc1)N(Cc1cccnc1)c1nc2c(F)cccc2s1`, the concentration at half-maximal activity (AC50) is 13.7 µM [falling, partial curve]. On to `COc1ccc(NC(=O)c2cc3c(s2)-c2c(C)cccc2OC3)cc1Cl`, for which the AC50 was 24.3 µM [falling, partial curve]. Turning to `CC(C)c1ccc(NC(=O)N2CCN(c3ccc(Cl)c(Cl)c3)CC2)cc1`, the AC50 is 24.3 µM [falling, partial curve]. On to `Cc1ccc(Cn2c(C)c3cnn(CC(=O)NCc4ccccc4)c(=O)c3c2C)cc1`, for which the AC50 was 19.3 µM [falling, partial curve]. Under `CCCN(CCC)CCCNC(=O)c1cc2c(=O)oc3ccc(C)cc3c2s1` stands 21.7 µM [falling, partial curve]; under `COc1ccc(CN2CCN(c3ncnc4sc5c(c34)CCCC5)CC2)cc1F`, 21.7 µM [falling, partial curve]. For `Cc1ccc(CNC(=O)c2ccc(Cn3c(=O)c4ccccc4n(CC(=O)Nc4c(C)cc(C)cc4C)c3=O)cc2)cc1`, the AC50 is 6.11 µM [falling, full curve].

As to `CCOC(=O)N1CCN(Cc2nc3cc(NC(=O)CC)ccc3n2C(C)C)CC1`, the AC50 is 5.44 µM [falling, full curve]. Turning to `Cc1ccc(-n2nc3c(N4CCC(C(=O)NCCc5ccccc5C)CC4)nnc(C)c3c2C)cc1`, the AC50 is 27.3 µM [falling, partial curve]. For `O=C(c1ccc(C(F)(F)F)cc1)N1CCC(c2nc(-c3ccc(S(=O)(=O)N4CCCC4)cc3)no2)CC1`, the AC50 was 10.9 µM [falling, full curve].

Regarding `CC(C)COc1ccccc1C1CC(=O)Nc2cc3c(cc21)OCO3` (configuration not stated), the AC50 was 24.3 µM [falling, partial curve, poor fit]. For the molecule `COC(=O)CS(=O)(=O)c1nc2ccccc2nc1N1CCCCC1`, the AC50 is 7.69 µM [falling, full curve]. Consider `O=C(Nc1ccc(Br)c2cccnc12)c1cccc2ccccc12`, for which the AC50 is 30.6 µM [falling, partial curve]. As for `CCOc1ccc(NC(=O)c2cc3sc(Cl)cc3n2CC)cc1`, the AC50 is 21.7 µM [falling, partial curve, poor fit].

In the case of `COc1ccc(-c2noc(CSc3nnc(-c4ccncc4)n3-c3ccc(C)c(C)c3)n2)cc1`, the AC50 was 15.3 µM [falling, partial curve, poor fit]. Turning to `COc1ccc(C)cc1Nc1c2c(nc3ccccc13)CCC2`, the AC50 is 2.17 µM [falling, full curve, poor fit].

Values taken from PubChem BioAssay (NCATS).
